Consider 86 compounds from article PMC4336329 (PLoS ONE, 2015).

Molecules are shown by their SMILES. Hit rate of the full screen: of about 310,000 compounds, about 14,000 (4.5%) showed an effect of 50% or more. Effects have a minus sign here. This is one part of the list.
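Also: peak tail current of the secondary pulse compared with the same well before compound.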

Sequence of human ether-à-go-go-related gene (hERG) potassium channel (Q12809 whole entry, looked up): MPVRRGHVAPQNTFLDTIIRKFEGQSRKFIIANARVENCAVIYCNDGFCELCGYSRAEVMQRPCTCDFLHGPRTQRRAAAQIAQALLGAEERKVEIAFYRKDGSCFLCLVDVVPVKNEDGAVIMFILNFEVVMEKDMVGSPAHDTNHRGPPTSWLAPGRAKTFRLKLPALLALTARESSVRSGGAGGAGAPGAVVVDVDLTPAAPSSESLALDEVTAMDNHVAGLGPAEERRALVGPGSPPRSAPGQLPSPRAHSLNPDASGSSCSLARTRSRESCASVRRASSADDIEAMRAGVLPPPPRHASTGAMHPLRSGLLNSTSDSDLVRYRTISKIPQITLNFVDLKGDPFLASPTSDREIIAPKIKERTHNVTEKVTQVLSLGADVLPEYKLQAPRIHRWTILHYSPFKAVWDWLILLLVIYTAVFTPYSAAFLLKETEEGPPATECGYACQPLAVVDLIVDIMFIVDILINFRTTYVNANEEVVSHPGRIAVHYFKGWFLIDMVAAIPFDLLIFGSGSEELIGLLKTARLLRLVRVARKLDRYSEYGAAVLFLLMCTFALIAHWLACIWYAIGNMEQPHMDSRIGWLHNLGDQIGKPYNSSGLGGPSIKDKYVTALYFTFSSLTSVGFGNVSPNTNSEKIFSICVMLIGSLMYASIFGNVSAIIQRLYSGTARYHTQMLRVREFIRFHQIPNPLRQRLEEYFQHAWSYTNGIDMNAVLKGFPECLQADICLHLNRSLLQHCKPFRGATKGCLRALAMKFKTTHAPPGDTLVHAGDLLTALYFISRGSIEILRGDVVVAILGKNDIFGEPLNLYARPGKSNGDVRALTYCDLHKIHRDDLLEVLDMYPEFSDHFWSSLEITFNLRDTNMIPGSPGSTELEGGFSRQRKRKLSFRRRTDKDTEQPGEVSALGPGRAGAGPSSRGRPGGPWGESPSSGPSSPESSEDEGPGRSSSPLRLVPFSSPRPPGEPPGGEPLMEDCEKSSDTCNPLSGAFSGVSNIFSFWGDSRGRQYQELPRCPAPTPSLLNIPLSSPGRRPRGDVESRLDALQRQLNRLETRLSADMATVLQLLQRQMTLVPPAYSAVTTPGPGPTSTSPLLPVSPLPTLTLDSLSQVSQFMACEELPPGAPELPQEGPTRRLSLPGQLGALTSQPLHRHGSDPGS

This test has as its target human ether-à-go-go-related gene (hERG) potassium channel (human, UniProt Q12809). Nature of the test: primary screen, population patch clamp on CHO cells stably expressing hERG.
With `COc1ccc(CCNc2ncnc3c2[nH]c2cc(OC)c(OC)cc23)cc1OC`, the “hERG current change (%, negative = inhibition) at 10uM” value was -6.41%.
The value for `CCc1ccc(OCC(=O)NC(NC(=S)Nc2ccccc2OC)C(Cl)(Cl)Cl)cc1` (centres unmarked) was 3.23%; that for `CC(C)c1ccc(C2c3[nH]c4ccccc4c3C[C@H]3C(=O)N(c4ccccc4C(=O)N4CCC[C@H]4C(=O)O)C(=O)N23)cc1` (some centres unmarked) was 5.97%; that for `COc1ccc(S(=O)(=O)Nc2c(O)ccc3ccccc23)cc1OC` was -10.2%.
The value for `Cn1nccc1C(=O)NC(=S)Nc1sc2c(c1C#N)CCCCC2` was 17.6%; that for `N/C(=N\OC(=O)c1ccccc1F)c1ccc([N+](=O)[O-])cc1` was 6.99%; that for `CCCOP(=O)(OCCC)C(Nc1ccc(C(=O)O)cc1)c1ccccc1` (centres unmarked) was 3.93%.
The value for `Cl.c1ccc2c(CN3CCCCC3)csc2c1` was -15.5%; that for `Cn1c(O)c(C=NCCCNC2CCCCC2)c(=O)n(C)c1=O` was 12%.
With `CCOC(=O)C1CCN(C(=O)CCc2c(C)nc3cc(-c4ccccc4)nn3c2C)CC1`, the “hERG current change (%, negative = inhibition) at 10uM” value is reported as -78.5%.
The value for `CCOC(=O)c1cnn2c(C(F)F)cc(C3CC3)nc12` was 9.56%; that for `COc1ccc(OC)c(CN2CCN(C(=O)COc3cccc(C)c3)CC2)c1.O=C(O)C(=O)O` was -46.7%; that for `Cc1cc(Cl)ccc1N1C(=O)CC(SCCC(=O)O)C1=O` (centres unmarked) was 10.3%.
The value for `S=c1[nH]nc(-c2ccc3ccccc3n2)n1-c1ccccc1Cl` was 15.7%; that for `OC(c1ccccc1)(c1ccccc1)c1ccn[nH]1` was 4.54%.
The value for `Cc1c(NC(=O)CSC(=S)N2CCCC2)c(=O)n(-c2ccccc2)n1C` was 3.94%; that for `Cc1ccccc1NC(=O)c1oc(=O)c2ccccc2c1-c1ccccc1` was -1.57%.
For `O=C(CSC1=NCCN1)C1COc2ccccc2O1` (centres unmarked), the “hERG current change (%, negative = inhibition) at 10uM” value is -16.8%.
The value for `O=C(CSc1nnc(Cn2cnc3ccccc32)o1)Nc1cccc2ccccc12` was 11.7%; that for `Cc1nn(Cc2cccc(C(=O)Nc3ccn(Cc4ccccc4F)n3)c2)c(C)c1[N+](=O)[O-]` was 6.24%; that for `Cc1noc(C)c1C(=O)OCC(=O)Nc1c(F)cccc1F` was 27%.
The value for `COc1ccccc1C(=O)Nc1ccc2c(c1)nc(CN1CCN(C(C)=O)CC1)n2C` was -80%.
As to `Cc1c(CCC(=O)O)c(=O)oc2c(C)c3occ(-c4ccc(Br)cc4)c3cc12`, the “hERG current change (%, negative = inhibition) at 10uM” value turned out to be 18.8%.
On to `COc1ccc(N(C)S(=O)(=O)c2cccc(C(=O)OCC(=O)Nc3sc4c(c3C#N)CCCCC4)c2)cc1`, for which the “hERG current change (%, negative = inhibition) at 10uM” value was 10.8%.
The value for `NC(=O)N/N=C/c1ccc(-c2ccc([N+](=O)[O-])cc2)o1` was -25.6%.
Regarding `CCOC(=O)c1[nH]c(C)c(C(=O)Nc2ccccc2F)c1C`, the “hERG current change (%, negative = inhibition) at 10uM” value is on record as -11.2%.
The value for `CCO[C@@H]1OC(C(=O)NCc2nc3ccccc3[nH]2)=C[C@H](C)[C@H]1CCCO` was -31.1%; that for `Cc1nc2ccccc2c(=O)n1/N=C/c1ccccc1O` was 5.01%; that for `COc1ccc(C(=O)NCC(=O)N/N=C/C(C)=C/c2ccccc2)cc1OC` was -1.63%.
The value for `Cc1nc2ccc([N+](=O)[O-])cc2c(=O)n1Cc1ccc([N+](=O)[O-])cc1` was -76.8%; that for `Cc1ccc(C(=O)OC(C)C(=O)NC2CCCCC2C)s1` (centres unmarked) was -0.588%; that for `O=C(O)c1cccc(COc2ccccc2Cl)c1` was 0.517%.
`O=C(CSc1ccccn1)Nc1cccc(S(=O)(=O)N2CCCC2)c1`: the “hERG current change (%, negative = inhibition) at 10uM” value is listed as -13.2%.
In the case of `Cc1ccccc1N1C(=O)c2ccccc2N2C(=O)c3ccccc3C12` (centres unmarked), the “hERG current change (%, negative = inhibition) at 10uM” value was -22%.
The value for `O=C(c1ccc(Cl)c(Cl)c1)N1CCC(=O)N(C(COCc2cccc(Cl)c2)Cc2ccccc2)CC1` (centres unmarked) was -4.62%; that for `CCOC(=O)CN1C(=O)N[C@@H](c2ccccc2)C(C(C)=O)=C1C` was 1.81%; that for `CC(=O)Nc1cc(NC(C)=O)cc(C(=O)OCC(=O)N2CC(C)OC(C)C2)c1` (centres unmarked) was 4.95%.
The value for `CC(=O)c1c2c3c(c(Br)ccc3n(C)c1=O)C(=O)c1ccccc1-2` was 2.39%; that for `COc1ccc(N2CCC(CNS(=O)(=O)c3cccc(C(F)(F)F)c3)C2)cc1` (centres unmarked) was -0.336%; that for `Cc1ccc(CNC(=O)c2cn(C)c(=O)c3c2c2ccccc2n3C)o1` was 9.89%.
The value for `CCc1ccc(C(=O)COC(=O)CNC(=O)CNC(=O)Cc2ccccc2)cc1` was 9.36%.
In the case of `O=C1Nc2ccccc2C12OC1CCCCC1O2` (centres unmarked), the “hERG current change (%, negative = inhibition) at 10uM” value is -45%.
Regarding `CCOC(=O)c1cccc(NC(=O)Cn2c(CC(=O)NC)nc3ccccc32)c1`, the “hERG current change (%, negative = inhibition) at 10uM” value is reported as -3.06%.
The value for `O=C(Nc1cccc(Cn2cccn2)c1)c1cc2c(s1)CCCC2` was -0.0832%; that for `CC(C)NC(=O)c1ccccc1NC(=O)C1COc2ccccc2O1` (centres unmarked) was 24%.
With `CCN(CC)c1ccc(/C=C2\NC(=O)NC2=O)cc1`, the “hERG current change (%, negative = inhibition) at 10uM” value came out at 19.5%.
The value for `CC(=O)Nc1ccc2c(c1)nc(CCN1CCC(C)CC1)n2C` was 8.83%.
The value for `CCCCCCCn1c(=N)n(CC(O)c2ccco2)c2ccccc21.Cl` (centres unmarked) was -86.9%.
The value for `CC(C)CN1C(=O)c2ccc(C(=O)Nc3nccs3)cc2C1=O` was 8.84%; that for `CCCCC[n+]1ccn(C2=C([O-])c3ccccc3C(=O)/C2=N\S(=O)(=O)c2ccc(Cl)cc2)c1` was -3.54%.
On to `c1ccc2c3c([nH]c2c1)C1(CCNCC1)NCC3`, for which the “hERG current change (%, negative = inhibition) at 10uM” value is listed as -6.06%.
The value for `O=C(Cc1csc(-c2ccccc2)n1)Nc1ccc(C(F)(F)F)cc1` was 12.4%; that for `Cn1c(SCC(=O)N2CCN(c3ccccc3)CC2)nnc1-c1cc2ccccc2o1` was -11.8%.
Turning to `COc1cccc(C(=O)NNC2=C(C(=O)C(F)(F)F)CCC2)c1`, the “hERG current change (%, negative = inhibition) at 10uM” value is recorded as 6.77%.
The value for `CCOC(=O)NC(=O)CSc1nc(-c2ccc(C)c(C)c2)cn1-c1ccccc1` was -0.392%; that for `CCn1c(-c2ccccc2)csc1=Nc1ccc(S(=O)(=O)O)cc1` was 15.2%; that for `CC(=O)N1CCc2c(sc(NC(=O)C3CCCN3S(=O)(=O)c3cccs3)c2C(N)=O)C1` (centres unmarked) was -2.88%.
The value for `COc1ccc2nc(NC(=O)c3ccc4ncsc4c3)sc2c1` was 22.2%.
For `CCOc1ccc2nc(N3C(=O)C(O)=C(C(=O)c4ccco4)C3c3ccco3)sc2c1` (centres unmarked), the “hERG current change (%, negative = inhibition) at 10uM” value is listed as 17.7%.
The value for `CN(C)c1c(F)cc(-c2nn[nH]n2)cc1F` was 12.9%; that for `CCOC(=O)C1=C(c2ccccc2)NC(=O)NC1c1ccc(OC)cc1` (centres unmarked) was -6.84%.
The value for `O=C(CSc1ccc(Cl)cc1)NC1=NN(c2ccccc2)C(=O)C1` was 17.5%.
As to `CCN(CC)CCNC(=O)c1cc2c(-c3ccc(Cl)cc3)nn(C)c2s1`, the “hERG current change (%, negative = inhibition) at 10uM” value is -69.6%.
The value for `Cl.Clc1cc(I)cc(Cl)c1NC1=NCCN1` was -1.37%; that for `Cc1ccc(Cl)cc1N1CCN(C(=O)c2ccc3nc[nH]c3c2)CC1` was -38.1%; that for `CC(C)N(C(=O)Cn1c(SCC(=O)Nc2nccs2)nc2ccccc21)C(C)C` was 12.6%.
On to `O/N=C1/C2C3CC4C5C3C1C5C1(OCCO1)C42` (centres unmarked), for which the “hERG current change (%, negative = inhibition) at 10uM” value amounted to 4.44%.
The value for `Cc1ccc(NS(=O)(=O)c2ccc(C(=O)NCC3CCCO3)cc2)cc1` (centres unmarked) was 5.49%.
The value for `O=C(Cc1ccc(-n2c(=O)c3sccc3n(CC(=O)Nc3ccccc3)c2=O)cc1)NCc1ccco1` was 13.7%; that for `CC(=O)Nc1ccc(/C(C)=N/Nc2nc(N3CCOCC3)nc(N3CCOCC3)n2)cc1` was 27%.
The value for `Nc1c(Cl)ncnc1N1CCCC1` was 21.4%.
`CC(=O)NCCc1ccc(C(=O)CSc2nnc(C3CC3)n2C2CC2)cc1`: the “hERG current change (%, negative = inhibition) at 10uM” value turned out to be 15.6%.
The value for `COc1cccc(CN2CCC(C(=O)N3CCN(Cc4ccc5c(c4)OCO5)CC3)CC2)c1` was -19.8%; that for `C[C@H](NC(=O)N1CCn2c1nc1ccccc12)C(=O)NCc1ccc2c(c1)OCO2` was -36.6%.
The value for `Cc1cc(NC(=O)CSc2nc3ccccc3cc2C#N)no1` was 0.0832%; that for `Cc1sc(NC(=O)CCS(=O)(=O)c2ccccc2)c(C#N)c1C` was 14.7%; that for `O=C1CCN(C(=O)c2ccccc2)C2CCCCC12` (centres unmarked) was -5.77%.
The value for `c1cnc2ccc(C(c3nnnn3C3CCCCC3)N3CCN(C4CCCCC4)CC3)cc2c1` (centres unmarked) was -78.8%.
With `CN(CC(=O)Nc1ccccc1C(F)(F)F)C(=O)C1CCN(C(=O)c2ccc(Cl)cc2)CC1`, the “hERG current change (%, negative = inhibition) at 10uM” value is -31.8%.
The value for `Cc1ccc(CN2C(=O)c3ccccc3NC2c2cc(Br)ccc2O)cc1` (centres unmarked) was 8.23%; that for `CNS(=O)(=O)c1cc(C(=O)NCc2ccco2)ccc1Cl` was 1.66%; that for `CC(=O)Nc1ccc([N+](=O)[O-])c(CS(=O)(=O)c2ccc(C)cc2)c1[N+](=O)[O-]` was -19.1%.
The value for `Cc1ccc(NC(=O)CSc2ccccc2NC(=O)c2cccc(Cl)c2)cc1Cl` was -5.6%.
The value for `CC(=O)NC(=S)Nc1cccc2ccc(C)nc12` was 3.25%.
`Cc1cc(NC(=O)CSc2nnc3c4c(C)c(C)sc4ncn23)no1`: the “hERG current change (%, negative = inhibition) at 10uM” value is -0.766%.
As for `COC(=O)c1ccc(Cn2nnc3c(=O)[nH]c(C4CCCN(S(=O)(=O)c5cccc(Cl)c5)C4)nc32)cc1` (centres unmarked), the “hERG current change (%, negative = inhibition) at 10uM” value came out at 11.4%.
